ChEMBL document CHEMBL1201862, “PubChem BioAssay data set” (2004)
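96-well plates; 48 h exposure; 5 concentrations. Endpoints by linear interpolation between flanking doses. Not reached: highest tested concentration assigned. Here, GI50 denotes the concentration required for 50% inhibition of growth.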 Calls of active or inactive are those of the source. No stated cut-off is given here; in the data, active = GI50 up to about 1.1 µM and inactive = higher.

These compounds were tested on NCI-H322M (assay: growth of human tumour cells (NCI), 48 h).

| SMILES | GI50 |
| --- | --- |
| Cc1cc(S(=O)(=O)Nc2nnc3cnc4ccccc4n23)c(S)cc1Cl | inactive: 67.5 µM |
| Oc1[nH]c(Nc2cccc(CC(F)(F)F)c2)nc2ncnc1-2 | inactive: > 100 µM |
| C=C(CN(C)C)C(=O)c1ccc(OC2OC(COC(C)=O)C(OC(C)=O)C(OC(C)=O)C2OC(C)=O)cc1 (centres undefined) | inactive: 17.9 µM |
| COc1cc(S(=O)(=O)Nc2ccc(-c3csc(N4C(=O)C(Cl)C4c4ccccc4)n3)cc2)ccc1Cl (centres undefined) | inactive: > 100 µM |
| COc1ccccc1C(=O)c1c(NCc2ccccc2)c(=O)c1=O | inactive: > 100 µM |
| CCOC(=O)c1sc2nc(SC)nc3c2c1N=CN3c1ccccc1Cl | inactive: > 100 µM |
| COc1c2cc(C(C)(C)C)cc1Cc1cccc(c1O)Cc1cc(C(C)(C)C)cc(c1OC)Cc1cccc(c1O)Cc1cc(C(C)(C)C)cc(c1OC)Cc1cccc(c1O)C2 | inactive: > 100 µM |
| CCc1n[nH]c(=O)n1CC | inactive: > 100 µM |
| O=C1C2Cc3ccccc3CN2C(=O)N1CN1CCCCC1 (centres undefined) | inactive: > 100 µM |
| COC(=O)C(C)(/N=C/c1ccccc1)c1ccccc1 (centres undefined) | inactive: > 100 µM |
| O=C(Nn1c(-c2ccccc2)nc2ccccc2c1=O)c1ccc(CS)cc1 | inactive: > 100 µM |
| C1CSCC2(COC2)CS1 | inactive: > 100 µM |
| CC(=O)N/C(=C\c1ccc(Cc2nc3c([nH]2)C(=O)c2ccccc2C3=O)cc1)c1nc2c([nH]1)C(=O)c1ccccc1C2=O | inactive: > 100 µM |
| CC(=O)Nc1ccc(C2=N/C(=C\c3ccc(Cl)cc3)C(=O)O2)cc1 | inactive: 25.8 µM |
| NC(=O)OCC(COc1ccc(Cl)cc1)OC(=O)c1cc([N+](=O)[O-])cc([N+](=O)[O-])c1 (centres undefined) | inactive: > 100 µM |
| COc1ccc(N2C(=O)C3c4[nH]c5c(C)cccc5c4C4CCC(C(C)C)CC4C3C2=O)cc1 (centres undefined) | inactive: 12.9 µM |
| Cc1cc(=O)c2c([nH]1)NS(=O)(=O)NC2=O | inactive: > 100 µM |
| O/N=C1\CC2(N3CCOCC3)CCC1(Cc1ccccc1)CC2 | inactive: > 100 µM |
| S=CN1CCCCC1 | inactive: > 100 µM |
| COC(=O)c1ccc(OCc2ccc3nc(OC)c(OC)nc3c2)cc1 | inactive: > 100 µM |
| Cc1c(C(=O)CC(=O)C(=O)Nc2c(C(C)C)cccc2C(C)C)[n+]([O-])c2ccccc2[n+]1[O-] | inactive: 3.98 µM |
| Cc1ccc(NC(=S)NNC(=O)c2cc(-c3ccccc3)nc3ccccc23)cc1C | inactive: 27.4 µM |
| CC1=C(C)SC(=C2Sc3c(n(C)c(=O)[nH]c3=O)S2)S1 | inactive: > 100 µM |

| SMILES | GI50 |
| --- | --- |
| O=C(CC(=O)c1ccccc1)CC(O)(c1ccccc1)c1ccccc1 | inactive: 7.14 µM |
| CS/C(=N\c1ccccc1)N(c1ccccc1)c1nc(=[N+](C)C)ss1.[O-][Cl+3]([O-])([O-])[O-] | inactive: 14.4 µM |
| CC1=C[C@@H]2[C@@H](CC(CO)=C[C@H]3[C@@H]4C(C)(C)[C@]4(OCC(C)C)[C@H](OCC(C)C)[C@@H](C)[C@]23O)C1=O | inactive: 2.92 µM |
| CC(NC(=O)Cc1ccccc1)NC(=O)C(C)C(=O)NCc1ccccc1 (centres undefined) | inactive: > 100 µM |
| COc1ccc(/C=C2/SC(c3ccc(Cl)cc3)N(NC(=O)CCCCCCCCC(=O)NN3C(=O)/C(=C\c4ccc(OC)c(OC)c4)SC3c3ccc(Cl)cc3)C2=O)cc1OC (centres undefined) | inactive: 55.3 µM |
| COc1cc(/C=N/c2ccccn2)cc(OC)c1OC | inactive: > 100 µM |
| CC(=O)Nc1ccc2nc(N)n[n+]([O-])c2c1 | inactive: > 100 µM |
| N#Cc1c(N)c2c(c(-c3ccccc3)c1-c1ccccc1)C(=O)N(NC(=S)Nc1ccccc1)C2=O | inactive: > 100 µM |
| Cc1cc2nc3c(C)c4ccccc4c(C)n3c2cc1C | inactive: 2.58 µM |
| Cc1ccc(C)n1-c1ccccc1C1C=CN(C(=O)OC(C)(C)C)C=C1 | inactive: 30.3 µM |
| CC(C)(Oc1ccc2c(=O)cc(-c3ccccc3)oc2c1)C(=O)N1CCN(c2ccccc2)CC1 | inactive: 8.97 µM |
| CSc1ncc2c(n1)-c1ccccc1OC2NC1CC1 (centres undefined) | inactive: > 100 µM |
| COc1ccccc1NC(=O)C1=C(C)NC(C)=C(C(=O)Nc2ccccc2OC)C1c1ccccc1OC | inactive: > 100 µM |
| Cc1ccc2nc(SCC(=O)N/N=C3\C(=O)Nc4ccccc43)n(-c3ccccc3)c(=O)c2c1 | inactive: 12.9 µM |
| Nc1ccc2c(SCCSc3c4ccccc4nc4cc(N)ccc34)c3ccccc3nc2c1 | inactive: 24.7 µM |
| COc1cc([C@@H]2c3cc4c(cc3[C@@H](Nc3ccc(Cl)cc3C(=O)c3ccccc3Cl)[C@H]3COC(=O)[C@H]23)OCO4)cc(OC)c1OC | active: 0.492 µM |
| CSc1ncc2c(n1)sc1c(=O)n(-c3ccccc3)cnc12 | inactive: > 100 µM |
| CC1(C)CC[C@]2(C)[C@@H](O)C[C@]3(C)C(=CC[C@@H]4[C@@]5(C)CC[C@H](O)C(C)(C)[C@@H]5CC[C@]43C)[C@@H]2C1 | inactive: 44.3 µM |
| C=CCN(C)CN(C)c1nc(N(C)C)nc(N(C)C)n1 | inactive: > 100 µM |
| O=C1CCC(=O)C12CCc1cccc(O)c12 | inactive: > 10 µM |
| COc1ccc(CNc2nc3cc(C(F)(F)F)ccc3nc2C(=O)O)cc1OC | inactive: 28.1 µM |
| CC(=O)OCCOCn1cc(C=O)c2ccccc21 | inactive: > 100 µM |
| N#C/C(=C\NC(=S)Nc1ccc(S(=O)(=O)Nc2ccccn2)cc1)C(N)=O | inactive: > 100 µM |

| SMILES | GI50 |
| --- | --- |
| COc1cc(Nc2c(C#N)[n+]([O-])c3ccccc3[n+]2[O-])cc(OC)c1OC | inactive: 32.9 µM |
| Cc1cc(C#N)c(Nc2ccc(F)cc2[N+](=O)[O-])s1 | inactive: > 100 µM |
| CN(C)C(=S)/N=c1\ss/c(=N\C(=S)N(C)C)n1C1CCCCC1 | inactive: > 100 µM |
| CCOP(=O)(C/C(O)=C1\C(=O)C(CCCCNC(=O)OC(C)(C)C)N(Cc2ccccc2)C1=O)OCC (centres undefined) | inactive: 34.8 µM |
| Cc1cccc(C)c1NC(=O)CCC(=O)NNC(=O)c1cc(O)c2ccccc2c1 | inactive: 44.3 µM |
| COc1ccc(-c2nc3ccc([N+](=O)[O-])cc3c(=O)[nH]2)cc1 | inactive: > 100 µM |
| CCc1nnc2sc(-c3ccc(-c4ccc(Cl)cc4Cl)o3)nn12 | inactive: 91.6 µM |
| c1ccc2c(c1)CCCN1CCc3ccccc3C21 (centres undefined) | inactive: 70.8 µM |
| O=C1NC(=O)C2C(=O)NC(=O)C1C2(c1ccccc1)c1ccc(Cl)cc1 (centres undefined) | inactive: > 100 µM |
| N[C@@H]1c2c(Br)sc(Br)c2[C@H](O)[C@@H]1O | inactive: > 100 µM |
| O=C(O)c1ccc(NC(=O)C2C(=O)C(=O)N(c3ccc(C(=O)O)cc3)C2=O)cc1 (centres undefined) | inactive: > 100 µM |
| COC(=O)C1=C(C(=O)OC)C2(C)C=CC1O2 (centres undefined) | inactive: > 100 µM |
| Cc1cc(C)c2nc3c(c(C(O)C4CCCCN4)c2c1)CC/C3=C\c1ccc(Cl)cc1 (centres undefined) | inactive: 47.9 µM |
| O=c1n(-c2ccccc2)c(=O)n2n1C1C=CC2CCCCCC1 | inactive: > 100 µM |
| CC(C)c1cc(C(C)C)c(Cl)c(Cl)c1O.CC(C)c1cc(Cl)c(O)c(C(C)C)c1Cl | inactive: 37.8 µM |
| CCCc1c(C(=O)OCC)[nH]c(-c2ccc(-c3[nH]c(C(=O)OCC)c(CCC)c3C(=O)OCC)o2)c1C(=O)OCC | inactive: > 100 µM |
| O=C(CCC(=O)Nc1ccc(Cl)c(Cl)c1)CC(=O)c1ccc2ccccc2c1 | inactive: > 100 µM |
| CC1(C)O[C@H]2OC(CO)C(OS(C)(=O)=O)[C@H]2O1 (some centres undefined) | inactive: > 100 µM |
| C=C1C2=C(CCCC2)C(=O)OC12CCCCC2 | inactive: > 100 µM |
| CNC(=O)OC(COC)CN1CCN(c2ccccc2C)CC1 (centres undefined) | inactive: > 10 µM |
| CCCCCCCCCCNC(=O)CCC(NC(=O)c1ccc(N(C)Cc2cnc3nc(N)nc(N)c3n2)cc1)C(=O)NCCCCCCCCCC (centres undefined) | inactive: 12 µM |
| CC[C@@]1(O)C(=O)OCc2c1cc1n(c2=O)Cc2c-1nc1ccccc1c2/C=N\NC(=O)C(N)CCSC (some centres undefined) | active: 0.38 µM |
| COc1cc(/C=C2\C(=O)N(C(=O)Cc3ccccc3)N=C2C)cc(OC)c1OC | inactive: > 100 µM |

| SMILES | GI50 |
| --- | --- |
| Cc1ccc(NCCO)cc1 | inactive: > 100 µM |
| S=C(S)NCC1CCC(CNC(=S)S)CC1 (centres undefined) | inactive: > 100 µM |
| Oc1ccc(-c2nc3ccc4ccccc4c3c3c2CCCC3)c(O)c1 | inactive: 37.5 µM |
| C=C1C(=O)OC2C=C(CCC(C)=O)C(C)C(OC(C)=O)CC12 (centres undefined) | inactive: 17.7 µM |
| Cc1nc(C(N)=S)sc1C(=O)C/C(=N/N)C(=O)Nc1ccc(Cl)cc1 | inactive: > 100 µM |
| CN(C)c1ccc(C2ON=C(c3ccccc3)N2C23CC4CC(CC(C4)C2)C3)cc1 (centres undefined) | active: 0.745 µM |
| CCCCCCCC/C=C/CCCCCCCC(=O)N(O)C1CC(n2cc(C)c(=O)[nH]c2=O)OC1CO (centres undefined) | inactive: 16.8 µM |
| Brc1ccc2[nH]cc([C@@H]3CN[C@@H](c4c[nH]c5ccc(Br)cc45)CN3)c2c1 | inactive: 4.57 µM |
| CCCNC(C#N)c1ccc(OCCCCCCCCCCOc2ccc(C(C#N)NCCC)cc2)cc1 (centres undefined) | inactive: 84.9 µM |
| CC1=NN=C(N)N/C1=C/C(Sc1ccc(Cl)cc1)c1cccs1 (centres undefined) | inactive: 21.7 µM |
| CC[C@@H]1C[C@@H]2CN3CCc4c([nH]c5ccc(OC)cc45)C(COC(=O)c4ccc(OC)c(OC)c4)(C2)C13 | inactive: 35.5 µM |
| CC(=O)NC1=C(C)C(=O)c2c(nc3n2CCC3OC(=O)c2ccccc2)C1=O (centres undefined) | inactive: 3.56 µM |
| Cn1cnc([N+](=O)[O-])c1Sc1nc2cc([N+](=O)[O-])ccc2[nH]1 | inactive: 24.3 µM |
| O=C(Oc1ccccn1)c1cc2cc(CCl)ccc2oc1=O | inactive: 35.6 µM |
| CSCCCNC(=O)c1csc(-c2csc(CCNC(=O)CNC(=O)CNC(=O)CNC(=O)OC(C)(C)C)n2)n1 | inactive: > 100 µM |
| COc1ccc(COCC(Cn2ccnc2)OCc2ccc(C(=O)O)cc2)cc1 (centres undefined) | inactive: > 100 µM |
| COc1cc2c(c(OC)c1OC)-c1ccc(SC)c(=O)cc1[C@@H](OC(=O)c1ccncc1)CC2 | active: < 0.01 µM |
| COc1cc(O)cc(/C=C/c2ccc(O)cc2)c1 | inactive: 31 µM |
| CSc1ccc2c(cc1=O)[C@@H](NC(C)=O)CCc1cc(O)c(O)c(O)c1-2 | inactive: 51.2 µM |
| O=C(Cc1ccccc1)Nc1nc2ccc(Cl)cc2c2nc(-c3ccco3)nn12 | inactive: > 100 µM |
